Experimental data from article PMC7819943, “Rice protein-binding microarrays: a tool to detect cis-acting elements near promoter regions in rice”.
This is one part of the list.

Target: T1, OsWOX13 (Oryza sativa, UniProt Q5QMM3 1-267)
T1 sequence: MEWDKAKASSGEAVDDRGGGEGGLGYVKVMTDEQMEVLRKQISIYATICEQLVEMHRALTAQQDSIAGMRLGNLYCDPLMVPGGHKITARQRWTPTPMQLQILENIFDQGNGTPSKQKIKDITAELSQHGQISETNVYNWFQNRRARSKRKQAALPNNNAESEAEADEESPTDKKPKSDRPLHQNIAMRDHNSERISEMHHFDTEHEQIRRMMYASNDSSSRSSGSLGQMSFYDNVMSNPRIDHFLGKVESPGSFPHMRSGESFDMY
Experiment: protein-binding microarray (RPBM); PBS, 2% BSA, 51.3 ng/ul salmon testes DNA, 50 uM zinc acetate, 200 nM TF, 25 C, 1 h; high values mean tight binding
Settings: protein: recombinant; tags: N-terminal polyhistidine and DsRed monomer fusion (pET32a); label: CyDye5-dUTP incorporated in the synthesized complementary strand; 3' TTTTT single-stranded linker to array surface; dsDNA, one strand shown
Summary of the method: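 For the binding signal, per-feature fluorescence intensity was read in arbitrary units on an Axon 4000B scanner. Before scanning, a 2% BSA-blocked custom Agilent array made double-stranded with Cy5-dUTP was washed after 1 h at 25 °C with 200 nM protein and 50 µM zinc acetate. The proteins were Ni–NTA-purified transcription factors with N-terminal polyhistidine and DsRed fusions, expressed in E. coli BL21-CodonPlus.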

Sequence | binding signal
CAAAAGGCAATTAGTAGACGACTAACTAACTAGTTTCTCCCGGAGTCACCTAGTGCAG | 10500 fluorescence intensity (a.u.)
TCTGGTCAATCACCCTGCCAAACTTTCAGTCAGAGAGACACGGAGTCACCTAGTGCAG | 14600 fluorescence intensity (a.u.)
ATTTCGCTACCAATCAGCTGCTTATCATAATTTTAAACTACGGAGTCACCTAGTGCAG | 11000 fluorescence intensity (a.u.)
GATGATGTGACTGAAAAGTTGTATGTGTATGACATATTGACGGAGTCACCTAGTGCAG | 11500 fluorescence intensity (a.u.)
CGTGTACGGCTCTGATTGGACCGCCCTACCACGAGTCAGACGGAGTCACCTAGTGCAG | 7280 fluorescence intensity (a.u.)
AATAATTGCACAAATATTGCAGGTGTATTTTATCAGCATACGGAGTCACCTAGTGCAG | 31800 fluorescence intensity (a.u.)
TGGAAATTACCATTTGCCTACTCCCATCGTGTCACCAGAACGGAGTCACCTAGTGCAG | 4180 fluorescence intensity (a.u.)
ATAAATTAATGGTAATATATTATTTTACGCACATGCAAATCGGAGTCACCTAGTGCAG | 30600 fluorescence intensity (a.u.)
TGCTTCATTGCATGGATTGATAAAACACATGCTTAATATTCGGAGTCACCTAGTGCAG | 3380 fluorescence intensity (a.u.)
CATTATAATTGAAACCACTGGTAAGAAACTTAGGTTATTGCGGAGTCACCTAGTGCAG | 19900 fluorescence intensity (a.u.)
GAACAAATTTTGAATGTCACGATTTGGGACGGAGGGGAGTCGGAGTCACCTAGTGCAG | 4580 fluorescence intensity (a.u.)
TGTGATTTAGGGATTTAGAAGCTGCGTGGCTGTTCTGTAACGGAGTCACCTAGTGCAG | 7660 fluorescence intensity (a.u.)
TTTAATGAATGAAACTAACTTACTGTCGTAGATATTACTACGGAGTCACCTAGTGCAG | 3270 fluorescence intensity (a.u.)
GTGAATTAATTGGGCCCACACCTTTTCATGCACCCCTTGCCGGAGTCACCTAGTGCAG | 31300 fluorescence intensity (a.u.)
ATCAGATGAGAAATTGCCGTTGATTAATCCGGAGACGAACCGGAGTCACCTAGTGCAG | 12800 fluorescence intensity (a.u.)
TACTATACGTTAATTGTACACAACGCTCCTAGCAGTTACTCGGAGTCACCTAGTGCAG | 4030 fluorescence intensity (a.u.)
ATTAATTCAACATAATAAAATCACATCATATGAAATATCCCGGAGTCACCTAGTGCAG | 3250 fluorescence intensity (a.u.)
ACCTGAAGAGTATAAATTGACTCCTGGTAGTTTTGCCATTCGGAGTCACCTAGTGCAG | 6210 fluorescence intensity (a.u.)
ATCTTAAATAAATAAATAGTAATTACATGATATTTTGAATCGGAGTCACCTAGTGCAG | 5840 fluorescence intensity (a.u.)
GATGATTTCGTGACGAAGCAGCTACCTCACAATGTGACATCGGAGTCACCTAGTGCAG | 12900 fluorescence intensity (a.u.)
TCTGATAATTTATAAATGTAAGGAGGGTAAAATTAAACCACGGAGTCACCTAGTGCAG | 14700 fluorescence intensity (a.u.)

Sequence | binding signal
AACCTAAGCCTAATTAATTAGTCCAGGTTGGTTTTCATGGCGGAGTCACCTAGTGCAG | 11300 fluorescence intensity (a.u.)
GTTGAGTGGTAGTTTGATTGGAAAAGTGCCAAATAACCCTCGGAGTCACCTAGTGCAG | 40100 fluorescence intensity (a.u.)
GTATCTATCTGTCATCAGATTGACGTGGTACACAATTCTTCGGAGTCACCTAGTGCAG | 7170 fluorescence intensity (a.u.)
TTGACGAAATGGGATGTACTGATTAGGGCTGCTAAAATCGCGGAGTCACCTAGTGCAG | 12700 fluorescence intensity (a.u.)
TAGAATTTATTTAATAATTAAAGTAAGTGTTTGAATAGAACGGAGTCACCTAGTGCAG | 3240 fluorescence intensity (a.u.)
CAAAATTTGACAATGCCAAAACTTGGTATGGTTTAAAATGCGGAGTCACCTAGTGCAG | 9370 fluorescence intensity (a.u.)
GGCTTGATTTAATTTGTTTTATGCTAGCGAGAGAATACGGCGGAGTCACCTAGTGCAG | 27200 fluorescence intensity (a.u.)
AAATTTAAGTAATTATTAATTATTTTCCTACCATTTGATTCGGAGTCACCTAGTGCAG | 25800 fluorescence intensity (a.u.)
ATTAATTAAGGCATAAGTACACCACATTCCACGTCACTACCGGAGTCACCTAGTGCAG | 8290 fluorescence intensity (a.u.)
CCAGAAGCTTGATTTGCAGCTGAAATGTATCCAAATTTGGCGGAGTCACCTAGTGCAG | 8230 fluorescence intensity (a.u.)
GAGAATTTGCATAGACAGATCTTCCTCCTTTCGTGCAAGACGGAGTCACCTAGTGCAG | 4290 fluorescence intensity (a.u.)
AACTAAAAGTTAATTATTCCAATTCCCGCTCACCCACCTACGGAGTCACCTAGTGCAG | 5770 fluorescence intensity (a.u.)
GGCTCTTTGATTCAAATGATTGAAGCTTTTCAAATCCTATCGGAGTCACCTAGTGCAG | 28300 fluorescence intensity (a.u.)
TCAAGATAATCAACGGTCCAAACAGTGCTACAGGAACACACGGAGTCACCTAGTGCAG | 4230 fluorescence intensity (a.u.)
GGGGACCAAGATTATGATTGTGTACAAAATTCGTGCTGACCGGAGTCACCTAGTGCAG | 4020 fluorescence intensity (a.u.)
ATGAGTGATTGATTTCTTGTTTATAGGAGTGGGTTGTTCACGGAGTCACCTAGTGCAG | 42500 fluorescence intensity (a.u.)
GTATACTCTGTAATTACAAGCAGTAGATGGTAGGTGTATGCGGAGTCACCTAGTGCAG | 4450 fluorescence intensity (a.u.)
ATAAAATTTTATGATATATAGATAATAATTTTACTTGCAACGGAGTCACCTAGTGCAG | 5640 fluorescence intensity (a.u.)
TTTGGATCGAACAGTGATTGGATCATGAGCTATGACCCTTCGGAGTCACCTAGTGCAG | 22800 fluorescence intensity (a.u.)
GCATTAATTTGGAGTGCACAATACTGGATTGAAATAAAGACGGAGTCACCTAGTGCAG | 5980 fluorescence intensity (a.u.)
ATAAACCTTAACTGCAATCTGTTTTACATATTACAGTAGTCGGAGTCACCTAGTGCAG | 8680 fluorescence intensity (a.u.)
